Measured values taken from PubChem BioAssay AID1345082 (National Center for Advancing Translational Sciences (NCATS), 2018).
The campaign covered roughly 94,000 compounds. About 4,000 (4.3%) were called active. The shares of active, inactive and inconclusive entries below differ from those in the screen. Calls follow the shape of the dose curve; as a rule, active = well fitted inhibition curve with a large enough effect; inconclusive = small, poorly fitted or top-dose-only effect; inactive = no such curve, though single readings can be large or run the other way. A potency beside an inconclusive call is a rough fit, not a confirmed value.

Experiment: Cytotoxic Profiling in NIH 3T3 Cell Line of Diverse Libraries Using Quantitative High-Throughput Screening; also: nearly all actives have a fitted effect of over 55% in size
Details: NIH 3T3 viability, CellTiter-Glo ATP luminescence, 48-72 h; series mostly up to 96.7 µM
Procedure, shortened: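 Viability of NIH 3T3 cells after 48 or 72 hr compound treatment at 37 °C was assessed by CellTiter-Glo, with luminescence imaged following a 10 min room-temperature step.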
Potency is read from the fitted curve at half-maximal effect; tags tell the direction and shape of the fitted curve.

Row | Structure (SMILES) | Potency
1 | Cc1cc(C)cc(NC(=S)N[C@H]2CO[C@H]3[C@@H]2OC[C@@H]3n2nnnc2Oc2cccc(N(C)C)c2)c1 | inconclusive: 11.2 µM [inhibitor, full curve]
2 | O=C(NCCc1ccccc1)c1cc2n(n1)CC(c1ccc3c(c1)OCO3)OC2 (stereo not given) | inconclusive: 50.1 µM [inhibitor, partial curve, poor fit]
3 | O=C(c1ccccc1OCC1CCCN(C2CCCC2)C1)N1CCCC1 (stereo not given) | inactive
4 | CC1CCN(C(=O)c2csc(N3CCN(c4ccc(Cl)cc4)CC3)n2)CC1 | inconclusive: 50.1 µM [inhibitor, partial curve, poor fit]
5 | Cc1ccc(Nc2ccnc(N3CCCC3C(=O)NCc3ccccc3)n2)cc1 (stereo not given) | inconclusive: 56.2 µM [inhibitor, partial curve, poor fit]
6 | COc1ccc(NC(=O)N2Cc3[nH]cnc3C[C@H]2c2nc(-c3ccc(C)cc3)no2)cc1 | inconclusive: 44.7 µM [inhibitor, partial curve, poor fit]
7 | C[C@H](O)c1onc(-c2ccc(F)cc2)c1C(=O)NC(C)(C)C | inactive
8 | O=C1OCC2(CCN([S+](=O)([O-])c3ccccc3)C2)N1CCN1CCOCC1 (stereo not given) | inconclusive: 89.1 µM [inhibitor, partial curve]
9 | COCCn1nnnc1C1CC2(CCOCC2)C(=O)N1CCc1cccs1 (stereo not given) | inactive
10 | COC(=O)[C@H]1CN(C(=O)NC(C)C)CCN1C(=O)CSC | inactive
11 | O=C(c1ccc2c(c1)OCO2)N1C2CCC1CN(Cc1cccnc1)C2 | inconclusive: 50.1 µM [inhibitor, partial curve, poor fit]
12 | COc1cccc(S(=O)(=O)N2CCCC(c3nc(C(C)C)no3)CCNC(=O)CC2)c1 (stereo not given) | inactive
13 | COc1ccc(NC(=O)Cn2c(-c3ccc(F)cc3)nc(C)c(CCO)c2=O)cc1OC | inconclusive: 70.8 µM [inhibitor, partial curve, poor fit]
14 | CCN1C(=O)C2CC3(CCN(C(=O)NC)CC3)CN2C1=O (stereo not given) | inactive
15 | C[S+](=O)([O-])c1ccc(-c2cc(C(=O)N3CCCCC3)nn3cccc23)cc1 | inconclusive: 50.1 µM [inhibitor, single point]
16 | CN(C)C(=O)N1CCCC(c2nc(CCOCC3CCCC3)no2)C1 (stereo not given) | inactive
17 | COc1ccc(-c2ncc(CN3CCCC4(C3)CN(C)C(=O)O4)cn2)cc1 (stereo not given) | inconclusive: 50.1 µM [inhibitor, partial curve, poor fit]
18 | Cc1ccc(C(=O)N2CCC3(CCC(=O)N(Cc4ccccc4)CC3)CC2)s1 | inconclusive: 39.8 µM [inhibitor, partial curve]
19 | O=c1c2nc(-c3ccoc3)ccc2ncn1-c1ccccc1 | inconclusive: 126 µM [inhibitor, single point]
20 | COc1ccc(C2Cn3nnc(C(=O)N4CCC(C(=O)NC5CCCC5)CC4)c3CO2)cc1 (stereo not given) | inactive
21 | CCC(C)NC(=O)N1CC(Oc2cccc(-c3nc(C)no3)c2)C1 (stereo not given) | inactive
22 | Cc1ccc(-n2cccc2CC(=O)NCc2ccccc2)cc1 | inactive
23 | Cc1cc(C(=O)N2CC(N(CC(C)C)C3CCOCC3)C2)nn1C | inactive
24 | Cc1ccc(CNC(=O)CN2C(=O)C(c3ccccc3)=NC23CCCCCC3)cc1 | inconclusive: 50.1 µM [inhibitor, partial curve, poor fit]

Row | Structure (SMILES) | Potency
25 | COc1ccc(-c2ccc3ncn(C)c(=O)c3n2)cc1OC | active: 35.5 µM
26 | Cn1ncc2c(C(=O)NCCCNC(=O)OC(C)(C)C)cc(-c3cccc(F)c3)nc21 | inconclusive: 50.1 µM [inhibitor, partial curve, poor fit]
27 | C[S+](=O)([O-])N1Cc2ccccc2CC2(CCCN2CC2CCCCC2)C1 (stereo not given) | inconclusive: 56.2 µM [inhibitor, partial curve, poor fit]
28 | O=C1COc2ccc(-c3ccncc3)nc2CN1Cc1ccc(F)cc1 | inconclusive: 35.5 µM [inhibitor, partial curve, poor fit]
29 | CNC(=O)[C@@H]1CN(C(=O)c2n[nH]c3ccccc23)C[C@H]1COC | inactive
30 | CC(=O)Nc1ccc(-c2nnc3n2CCN(C(=O)c2ccccc2C)C3)cc1 | inactive
31 | COc1ccc(NC(=O)[C@@H]2C[C@@H](c3cccc(C(F)(F)F)c3)N(C)C2)c(C)c1 | inconclusive: 70.8 µM [inhibitor, partial curve]
32 | N#Cc1ccc(CN2CCC3(CC2)CC(=O)Nc2ccccc2O3)cc1 | inconclusive: 50.1 µM [inhibitor, partial curve, poor fit]
33 | COCc1nc(-c2ccc(OC3CCN(C(=O)NCc4ccc(F)cc4)C3)cc2)no1 (stereo not given) | inconclusive: 11.2 µM [inhibitor, full curve]
34 | CCCNC(=O)[C@@H]1Cc2cn(Cc3ccccn3)c3cccc(c23)[C@H](CC(C)C)N1 | inconclusive: 63.1 µM [inhibitor, partial curve, poor fit]
35 | c1ccc2c(CN3CCC[C@H]3c3nc(-c4ccc(OC5CCCCC5)nc4)no3)c[nH]c2c1 | active: 31.6 µM
36 | O=C(N[C@@H]1CN(C(=O)c2ccc3ccccc3n2)C[C@H]1CO)c1ccccc1 | inactive
37 | O=C(Cc1ccc(F)cc1)N1CCC2(C1)C(=O)N(CCc1ccccc1)c1ccccc12 (stereo not given) | inconclusive: 50.1 µM [inhibitor, partial curve, poor fit]
38 | Cc1cccc(CNC(=O)c2cc3c(=O)[nH]c(C)cn3n2)c1 | inactive
39 | Cc1cc(C)nc(CNC(=O)c2ccc3nc(-c4ccc(F)cc4)cn3c2)n1 | inactive
40 | COc1cccc(CC(=O)N2CCC3(CC2)OC(=O)N(Cc2csc(C)n2)C3(C)c2ccccc2)c1 (stereo not given) | active: 7.08 µM
41 | Cc1ccccc1Cc1noc(-c2nc(-c3ccccc3F)no2)n1 | inactive
42 | COc1cc(-c2nc3c([nH]2)CCCNC3=O)ccc1O | inconclusive: 89.1 µM [inhibitor, single point]
43 | COc1cccc(CN2Cc3cc(NS(=O)(=O)c4ccccc4)ccc3OCC2=O)c1OC | inconclusive: 44.7 µM [inhibitor, partial curve]
44 | COc1cc(OC)c(NC(=O)CN2C(=O)NC3(CCOCC3)C2=O)cc1Cl | inactive
45 | COc1ccc(N2CCN(C3CCCN(C/C=C/c4ccccc4OC)C3)CC2)cc1 (stereo not given) | inactive
46 | O=C(c1ccc2n[nH]nc2c1)N1CCC2(CC1)Nc1ccccc1NC2=O | inactive
47 | COC1CCOC2(CCN(C(=O)Cc3cccc(F)c3)CC2)C1 (stereo not given) | inactive
48 | O=C([C@H]1CCCN1C(=O)c1cccc(Cl)c1)N1CCC(N2CCOC2=O)CC1 | inactive

Row | Structure (SMILES) | Potency
49 | O=C(NC1CCCC1)c1csc(N2CCN(c3ccccc3F)CC2)n1 | active: 25.1 µM
50 | CCN(CC)c1ccc(C(=O)N2CCCC(n3cc(-c4nc(C(C)C)no4)nn3)C2)cc1 (stereo not given) | inconclusive: 50.1 µM [inhibitor, partial curve, poor fit]
51 | COCc1noc(-c2ccc(N(C)CC3CC(=O)N(C(C)(C)C)C3)nc2)n1 (stereo not given) | inconclusive: 12.6 µM [inhibitor, full curve, poor fit]
52 | Cc1ccc(-c2nnc([C@H]3CCN(C(=O)c4ccccc4)C3)o2)cc1 | inactive
53 | CCOc1ccc(CC(=O)N2CCC[C@H]2c2nc(-c3ccccc3)no2)cc1OCC | inconclusive: 50.1 µM [inhibitor, partial curve, poor fit]
54 | COc1ccc(-c2ccc(C(=O)NCc3ccc(F)cc3F)cc2)nn1 | inconclusive: 50.1 µM [inhibitor, partial curve, poor fit]
55 | COc1ccc(CNC(=O)C2CC(=O)N(c3n[nH]c4ccccc34)C2)cc1OC (stereo not given) | inactive
56 | Cc1cc(=O)n(CC(=O)NCCCc2ccccc2)c(N2CCc3ccccc3C2)n1 | inconclusive: 50.1 µM [inhibitor, partial curve, poor fit]
57 | CCOC(=O)N1CCC(N(C)CC2CCN(CCc3ccc(F)cc3)CC2)CC1 | inconclusive: 56.2 µM [inhibitor, partial curve, poor fit]
58 | COc1ccc(Nc2ccnc(N3CCC(NC(=O)Nc4ccc(Cl)cc4)CC3)n2)cc1 | active: 31.6 µM
59 | Cc1ccc2oc([C@H]3CCN(Cc4ccc(C(=O)O)cc4)C3)nc2c1 | inconclusive: 112 µM [inhibitor, single point]
60 | CSc1ncc(C(=O)N2CCC(c3nccn3CCN(C)C)CC2)cn1 | inactive
61 | Cc1ccc(-c2cc(N3CCCN(C(=O)c4cccnc4)CC3)n[nH]2)cc1C | inactive
62 | CC(C)C[C@@H]1N[C@H](C(=O)N2CCCC2)Cc2cn(Cc3ccccn3)c3cccc1c23 | inconclusive: 112 µM [inhibitor, single point]
63 | COC(=O)N1CCN(Cc2ccccc2-c2ccccc2F)CC1 | inconclusive: 50.1 µM [inhibitor, partial curve, poor fit]
64 | CCc1cc(=O)n(CC(=O)Nc2cccc(C#N)c2)c(N2CCOCC2)n1 | inconclusive: 50.1 µM [inhibitor, partial curve, poor fit]
65 | CC(=O)N1C[C@@H]2CCCN3CCC[C@@H]([C@H]23)[C@H]1CCCC(=O)N1CCC(C)CC1 | inactive
66 | COc1ccc(N2CC(C(=O)NCCc3ccc(Cl)cc3)NC2=O)cc1 (stereo not given) | inactive
67 | COc1ccccc1Nc1ncc2c(n1)CN(C(=O)c1cccc(N(C)C)c1)CCN2 | inactive
68 | Cc1ccsc1CNC(=O)c1cccc(C#CC(C)(C)O)c1 | inconclusive: 56.2 µM [inhibitor, partial curve, poor fit]
69 | COc1ccc(-c2nc(C3CC3)nc3c2CCN(Cc2cccc4ccccc24)CC3)cc1 | inactive
70 | COc1cc(OC)cc(C(=O)NC2CCCN(c3cc(-c4ccc(F)cc4)[nH]n3)C2)c1 (stereo not given) | inconclusive: 50.1 µM [inhibitor, partial curve, poor fit]
